In the supplement of paper PMC10369915:
This is one part of the list. Cut-off read from the data, not from the text of the source: active = 3.2 or more and inactive = the rest. Only a few entries rise above the background.

target: SHP2 C-SH2 domain E139D; test: enrichment score (SH2-bound / input frequency) (ratio); bacterial display of known human phosphotyrosine sites (pTyr-Var adds point mutants) read by sequencing; higher = stronger binding; tyrosines were phosphorylated by kinases first; conditions: peptide library: pTyr-Var
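Note: displayed peptides selected on beads carrying the immobilized SH2 domain, with library peptides lacking any tyrosine serving as negative controls.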

Enrichment score, inactive:
AVRVFYRKCPH [EPHB2_Y194_R199H] 0.552, RTIPDYTSFNT [EPHB2_Y912] 0.904, GREAEYSDKHG [EPHB4_Y574] 0.452, HGTKVYIDPFT [EPHB4_Y590] 1.67, DVELLYPVKEK [EPHX1_Y283] 1.09, ERMKVYVPIGF [EPHX1_Y393_T396I] 0.943, KRLAVYIDEEA [EPM2A_Y304_P301L] 0.572, LSDGPYSSPYE [EPOR_Y485_N487S] 0.602, LSDGPYSNSYE [EPOR_Y485_P488S] 0.57, LSDGPYSNSFE [EPOR_Y485_P488S_YF] 0.639, PYSNPYENSLI [EPOR_Y489] 0.528, PYSSPYENSLI [EPOR_Y489_N487S] 0.959, PFSNSYENSLI [EPOR_Y489_P488S_YF] 1.22, PFSNPYENSLI [EPOR_Y489_YF] 1.39, AFDNLYYWDQD [ERBB2_Y1221] 1, DFDNLYYWDQD [ERBB2_Y1221_A1216D] 0.919, DFDNLYFWDQD [ERBB2_Y1221_A1216D_YF] 0.91, ILDEAYVMAGV [ERBB2_Y772] 0.681, YGPPQYNIQYS [ERBB2IP_Y977] 0.706

target: SHP2 C-SH2 domain wild-type; test: as above; conditions: peptide library: pTyr-Var

Enrichment score, inactive:
AVRVFYRKCPH [EPHB2_Y194_R199H] 0.311, RTIPDYTSFNT [EPHB2_Y912] 0.542, GREAEYSDKHG [EPHB4_Y574] 0.565, HGTKVYIDPFT [EPHB4_Y590] 0.848, DVELLYPVKEK [EPHX1_Y283] 0.94, ERMKVYVPIGF [EPHX1_Y393_T396I] 0.894, KRLAVYIDEEA [EPM2A_Y304_P301L] 0.761, LSDGPYSSPYE [EPOR_Y485_N487S] 0.557, LSDGPYSNSYE [EPOR_Y485_P488S] 0.593, LSDGPYSNSFE [EPOR_Y485_P488S_YF] 0.645, PYSNPYENSLI [EPOR_Y489] 0.735, PYSSPYENSLI [EPOR_Y489_N487S] 0.894, PFSNSYENSLI [EPOR_Y489_P488S_YF] 1.8, PFSNPYENSLI [EPOR_Y489_YF] 1.43, AFDNLYYWDQD [ERBB2_Y1221] 1.23, DFDNLYYWDQD [ERBB2_Y1221_A1216D] 0.922, DFDNLYFWDQD [ERBB2_Y1221_A1216D_YF] 0.841, ILDEAYVMAGV [ERBB2_Y772] 0.795, YGPPQYNIQYS [ERBB2IP_Y977] 0.755

target: SHP2 N-SH2 domain L43F; test: as above; conditions: peptide library: pTyr-Var

Enrichment score, inactive:
AVRVFYRKCPH [EPHB2_Y194_R199H] 0.446, RTIPDYTSFNT [EPHB2_Y912] 0.798, GREAEYSDKHG [EPHB4_Y574] 0.555, HGTKVYIDPFT [EPHB4_Y590] 1.11, DVELLYPVKEK [EPHX1_Y283] 1.15, ERMKVYVPIGF [EPHX1_Y393_T396I] 0.927, KRLAVYIDEEA [EPM2A_Y304_P301L] 0.706, LSDGPYSSPYE [EPOR_Y485_N487S] 0.778, LSDGPYSNSYE [EPOR_Y485_P488S] 0.759, LSDGPYSNSFE [EPOR_Y485_P488S_YF] 0.677, PYSNPYENSLI [EPOR_Y489] 0.951, PYSSPYENSLI [EPOR_Y489_N487S] 0.762, PFSNSYENSLI [EPOR_Y489_P488S_YF] 2.07, PFSNPYENSLI [EPOR_Y489_YF] 1.55, AFDNLYYWDQD [ERBB2_Y1221] 1.18, DFDNLYYWDQD [ERBB2_Y1221_A1216D] 0.816, DFDNLYFWDQD [ERBB2_Y1221_A1216D_YF] 0.939, ILDEAYVMAGV [ERBB2_Y772] 0.728, YGPPQYNIQYS [ERBB2IP_Y977] 0.854

target: SHP2 N-SH2 domain T42A; test: as above; conditions: peptide library: pTyr-Var

Enrichment score, inactive:
AVRVFYRKCPH [EPHB2_Y194_R199H] 0.635, RTIPDYTSFNT [EPHB2_Y912] 0.538, GREAEYSDKHG [EPHB4_Y574] 0.444, HGTKVYIDPFT [EPHB4_Y590] 2.7, DVELLYPVKEK [EPHX1_Y283] 0.823, ERMKVYVPIGF [EPHX1_Y393_T396I] 2.15, KRLAVYIDEEA [EPM2A_Y304_P301L] 0.683, LSDGPYSSPYE [EPOR_Y485_N487S] 0.457, LSDGPYSNSYE [EPOR_Y485_P488S] 0.653, LSDGPYSNSFE [EPOR_Y485_P488S_YF] 0.694, PYSNPYENSLI [EPOR_Y489] 0.687, PYSSPYENSLI [EPOR_Y489_N487S] 1.05, PFSNSYENSLI [EPOR_Y489_P488S_YF] 1.24, PFSNPYENSLI [EPOR_Y489_YF] 1.27, AFDNLYYWDQD [ERBB2_Y1221] 1.03, DFDNLYYWDQD [ERBB2_Y1221_A1216D] 0.658, DFDNLYFWDQD [ERBB2_Y1221_A1216D_YF] 0.82, ILDEAYVMAGV [ERBB2_Y772] 0.712, YGPPQYNIQYS [ERBB2IP_Y977] 0.709

target: SHP2 N-SH2 domain T52S; test: as above; conditions: peptide library: pTyr-Var

Enrichment score, inactive:
AVRVFYRKCPH [EPHB2_Y194_R199H] 0.483, RTIPDYTSFNT [EPHB2_Y912] 0.586, GREAEYSDKHG [EPHB4_Y574] 0.431, HGTKVYIDPFT [EPHB4_Y590] 1.31, DVELLYPVKEK [EPHX1_Y283] 1.01, ERMKVYVPIGF [EPHX1_Y393_T396I] 0.921, KRLAVYIDEEA [EPM2A_Y304_P301L] 0.607, LSDGPYSSPYE [EPOR_Y485_N487S] 0.6, LSDGPYSNSYE [EPOR_Y485_P488S] 0.636, LSDGPYSNSFE [EPOR_Y485_P488S_YF] 0.562, PYSNPYENSLI [EPOR_Y489] 0.75, PYSSPYENSLI [EPOR_Y489_N487S] 0.706, PFSNSYENSLI [EPOR_Y489_P488S_YF] 1.03, PFSNPYENSLI [EPOR_Y489_YF] 1.26, AFDNLYYWDQD [ERBB2_Y1221] 1.06, DFDNLYYWDQD [ERBB2_Y1221_A1216D] 0.835, DFDNLYFWDQD [ERBB2_Y1221_A1216D_YF] 0.809, ILDEAYVMAGV [ERBB2_Y772] 0.687, YGPPQYNIQYS [ERBB2IP_Y977] 0.689

target: SHP2 N-SH2 domain wild-type; test: as above; conditions: peptide library: pTyr-Var

Enrichment score, inactive:
AVRVFYRKCPH [EPHB2_Y194_R199H] 0.408, RTIPDYTSFNT [EPHB2_Y912] 0.819, GREAEYSDKHG [EPHB4_Y574] 0.4, HGTKVYIDPFT [EPHB4_Y590] 0.822, DVELLYPVKEK [EPHX1_Y283] 0.695, ERMKVYVPIGF [EPHX1_Y393_T396I] 0.944, KRLAVYIDEEA [EPM2A_Y304_P301L] 0.691, LSDGPYSSPYE [EPOR_Y485_N487S] 0.609, LSDGPYSNSYE [EPOR_Y485_P488S] 0.589, LSDGPYSNSFE [EPOR_Y485_P488S_YF] 0.854, PYSNPYENSLI [EPOR_Y489] 0.814, PYSSPYENSLI [EPOR_Y489_N487S] 0.767, PFSNSYENSLI [EPOR_Y489_P488S_YF] 1.78, PFSNPYENSLI [EPOR_Y489_YF] 1.26, AFDNLYYWDQD [ERBB2_Y1221] 0.955, DFDNLYYWDQD [ERBB2_Y1221_A1216D] 0.978, DFDNLYFWDQD [ERBB2_Y1221_A1216D_YF] 1.39, ILDEAYVMAGV [ERBB2_Y772] 0.753, YGPPQYNIQYS [ERBB2IP_Y977] 0.575
